{
  "source": "PubChem BioAssay AID1347165",
  "about": "(National Center for Advancing Translational Sciences (NCATS), 2019)",
  "note": "Hit rate of the full screen: of about 220,000 compounds, about 5,700 (2.6%) were called active. Inconclusive results, whose numbers are uncertain, are shown with a selection of clear calls. The call rests on the fitted dose curve; in most records, active means well fitted inhibition curve with a large enough effect; inconclusive means small, poorly fitted or top-dose-only effect; inactive means no such curve, though single readings can be large or run the other way. Potencies of inconclusive entries are doubtful fits and often do not repeat. Potency means the concentration at half of the fitted maximal effect; tags describe the fitted curve by direction and shape.",
  "data": [
    {"target": "Lysine-specific demethylase 5B (Homo sapiens) (UniProt Q9UGL1)", "sequence (Q9UGL1 whole entry, looked up)": "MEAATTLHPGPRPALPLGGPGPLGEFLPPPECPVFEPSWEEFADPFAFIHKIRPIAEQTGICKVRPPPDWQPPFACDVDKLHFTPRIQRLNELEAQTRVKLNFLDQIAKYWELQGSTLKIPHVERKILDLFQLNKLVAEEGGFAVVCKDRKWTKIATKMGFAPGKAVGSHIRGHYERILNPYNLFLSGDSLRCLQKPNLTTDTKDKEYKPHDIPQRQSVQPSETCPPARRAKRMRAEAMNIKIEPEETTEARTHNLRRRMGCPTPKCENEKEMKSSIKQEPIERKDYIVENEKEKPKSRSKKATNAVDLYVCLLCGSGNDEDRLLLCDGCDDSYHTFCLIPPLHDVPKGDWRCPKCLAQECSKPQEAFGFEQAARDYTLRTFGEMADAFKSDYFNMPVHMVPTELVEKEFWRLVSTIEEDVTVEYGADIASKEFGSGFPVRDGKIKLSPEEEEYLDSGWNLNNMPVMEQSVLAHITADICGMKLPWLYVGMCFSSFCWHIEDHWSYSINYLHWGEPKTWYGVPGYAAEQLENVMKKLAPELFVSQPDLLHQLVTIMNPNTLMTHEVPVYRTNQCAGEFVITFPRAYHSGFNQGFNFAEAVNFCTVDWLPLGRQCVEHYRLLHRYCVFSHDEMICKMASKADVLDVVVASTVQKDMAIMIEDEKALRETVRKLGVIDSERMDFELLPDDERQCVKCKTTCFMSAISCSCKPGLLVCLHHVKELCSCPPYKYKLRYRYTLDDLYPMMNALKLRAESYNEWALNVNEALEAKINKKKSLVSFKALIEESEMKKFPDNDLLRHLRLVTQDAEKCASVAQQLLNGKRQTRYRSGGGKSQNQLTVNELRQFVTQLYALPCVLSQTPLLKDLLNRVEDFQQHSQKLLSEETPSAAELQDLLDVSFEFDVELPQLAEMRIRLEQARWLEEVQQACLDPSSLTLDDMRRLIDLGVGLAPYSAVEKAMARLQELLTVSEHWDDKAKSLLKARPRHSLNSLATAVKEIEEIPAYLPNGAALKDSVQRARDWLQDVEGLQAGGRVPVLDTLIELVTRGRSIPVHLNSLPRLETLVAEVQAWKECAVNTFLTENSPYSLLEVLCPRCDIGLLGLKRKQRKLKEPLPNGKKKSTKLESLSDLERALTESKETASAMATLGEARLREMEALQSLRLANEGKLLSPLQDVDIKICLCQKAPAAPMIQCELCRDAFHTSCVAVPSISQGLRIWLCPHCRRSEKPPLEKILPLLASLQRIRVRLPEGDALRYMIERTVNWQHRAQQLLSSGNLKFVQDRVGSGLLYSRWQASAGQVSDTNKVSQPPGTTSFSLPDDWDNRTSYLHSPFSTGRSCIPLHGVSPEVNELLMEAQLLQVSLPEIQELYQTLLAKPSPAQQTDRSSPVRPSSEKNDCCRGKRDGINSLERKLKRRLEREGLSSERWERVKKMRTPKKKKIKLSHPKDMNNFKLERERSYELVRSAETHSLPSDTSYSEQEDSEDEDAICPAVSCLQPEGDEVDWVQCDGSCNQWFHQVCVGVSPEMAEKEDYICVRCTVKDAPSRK", "experiment": "Primary screen for KDM5B Histone Demethylases FDH-coupled qHTS; further: nearly all actives have a fitted effect of over 70% in size; on activity change, negative = inhibition: 0% is about no effect", "details": "FDH-coupled NADH fluorescence (FDH is formaldehyde dehydrogenase); activity change, negative = inhibition: at 57.7 µM (top of the series) unless noted", "in_short": "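Here, H3K4me3 peptide (12.5 µM in substrate mix) is demethylated by KDM5BΔAP, 200 nM final, after 10 min compound exposure. Formaldehyde product is coupled through FDH (0.25 U/mL in mix) to NADH fluorescence; 30-min ΔRFU feeds dose-response curves.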", "values": [
      {"smiles": "CCC(CC)NC(=O)c1cc(S(C)(=O)=O)ccc1C", "activity change, negative = inhibition": "inactive: 12.3%"},
      {"smiles": "Cc1ncoc1C(=O)N1CCC2(CC1)CC(N(Cc1ccc(F)cc1)C1CC1)CCO2", "note": "(stereo not drawn)", "activity change, negative = inhibition": "inactive: 9.74%"},
      {"smiles": "Cc1cccc(NC(=O)Cn2ccn3nc(-c4ccccc4)c(CO)c3c2=O)c1", "Potency": "inconclusive: 22.4 µM [inhibitor, single point]"},
      {"smiles": "O=C(O)CCCN1CCCC1", "activity change, negative = inhibition": "inactive: -16.1%"},
      {"smiles": "O=C(COc1ccc2ccc(=O)oc2c1)Nc1ccc(F)c(F)c1F", "Potency": "inconclusive: 28.2 µM [inhibitor, partial curve, poor fit]"},
      {"smiles": "CC(C)CNC(=O)c1ccc(-c2nnc3ccc(NC(=O)C4CC4)cn23)cc1", "Potency": "active: 14.1 µM"},
      {"smiles": "N#Cc1nc(-c2ccc(S(=O)(=O)N3CCOCC3)cc2)oc1N1CCCCCC1", "Potency": "inconclusive: 15.8 µM [inhibitor, partial curve, poor fit]"},
      {"smiles": "COc1ccc(-c2nn(-c3ccc(F)cc3)c(OC(C)=O)c2-c2ccc(NC(C)=O)cc2)cc1OC", "Potency": "active: 20 µM"},
      {"smiles": "N#Cc1nc(-c2ccc(S(=O)(=O)N3CCCCC3)cc2)oc1NCCN1CCOCC1", "Potency": "inconclusive: 25.1 µM [inhibitor, partial curve, poor fit]"},
      {"smiles": "Cc1cccc(-c2nnc(C3CCN(S(=O)(=O)c4cccc(Cl)c4)CC3)o2)c1", "Potency": "inconclusive: 17.8 µM [inhibitor, single point]"},
      {"smiles": "Cc1nc(NC2CCCC2)ncc1C(=O)O", "Potency": "inconclusive: 28.2 µM [inhibitor, partial curve, poor fit]"},
      {"smiles": "CN1CC2(CCN(C3CCN(CCc4ccccc4)CC3)C2)OC1=O", "note": "(stereo not drawn)", "Potency": "inconclusive: 22.4 µM [inhibitor, partial curve, poor fit]"},
      {"smiles": "COc1cc(C2NC(=O)c3c(sc4c3CCN(C)C4)N2)cc(OC)c1OC", "note": "(stereo not drawn)", "Potency": "inconclusive: 25.1 µM [inhibitor, partial curve, poor fit]"},
      {"smiles": "Cc1ccc(NC(=O)Cn2c(=O)n(CC3CCCO3)c(=O)c3ccccc32)cc1", "note": "(stereo not drawn)", "activity change, negative = inhibition": "inconclusive: -36% [inhibitor]"},
      {"smiles": "COc1ccc(Oc2c(C)oc3cc(OC(=O)c4ccco4)ccc3c2=O)cc1", "activity change, negative = inhibition": "inactive: -12.1%"},
      {"smiles": "Cc1ccc(Cl)cc1N1CCN(C(=O)c2ccc(CS(=O)(=O)c3ccccc3C)o2)CC1", "Potency": "inconclusive: 7.94 µM [inhibitor, partial curve, poor fit]"},
      {"smiles": "CCCc1nnc(NC(=O)NCC(O)c2ccc(F)cc2)s1", "note": "(stereo not drawn)", "activity change, negative = inhibition": "inactive: 28.4%"},
      {"smiles": "CN(C(=O)N1CCCn2nc(C(=O)N3CCOCC3)cc2C1)c1ccccc1", "activity change, negative = inhibition": "inactive: -13%"},
      {"smiles": "Cc1ccc(N2C(=O)CN(S(=O)(=O)c3ccc(C)cc3)CC2(C)C(=O)NCCC(C)C)cc1", "note": "(stereo not drawn)", "activity change, negative = inhibition": "inactive: 11%"},
      {"smiles": "O=C(NCCc1noc(C2CC2)n1)c1cccs1", "activity change, negative = inhibition": "inactive: 29.8%"},
      {"smiles": "CCOc1ccc(-c2cc3c(=O)n(CCNC(=O)Cc4cccs4)ccn3n2)cc1", "Potency": "active: 31.6 µM"},
      {"smiles": "COc1cncc(Nc2ncc(-c3ccccc3OC)c3c2OCC3)c1", "Potency": "inconclusive: 31.6 µM [inhibitor, single point]"},
      {"smiles": "COc1ccc(C(=O)NC2CCN(c3cnn(C)c(=O)c3)CC2)cc1", "activity change, negative = inhibition": "inactive: 7.48%"},
      {"smiles": "COc1ccc(-c2cc(C(C)=O)c(C)n2CCC(=O)Nc2cc(Cl)ccc2C)cc1", "Potency": "inconclusive: 28.2 µM [inhibitor, partial curve, poor fit]"},
      {"smiles": "COc1ccc2cc(/C=C3\\SC(=O)NC3=O)ccc2c1", "Potency": "inconclusive: 39.8 µM [inhibitor, single point]"},
      {"smiles": "COc1ccc(NS(=O)(=O)c2cc(-c3cnc(C)o3)ccc2OC)cc1", "activity change, negative = inhibition": "inactive: 2.94%"},
      {"smiles": "Cc1ccc(-c2csc(-c3nc(-c4ccc(C)cc4)c(C)s3)n2)cc1", "activity change, negative = inhibition": "inactive: 17.2%"},
      {"smiles": "O=C(NC1CCN(c2cc(-c3ccc(F)cc3)[nH]n2)C1)c1ccc2c(c1)OCO2", "note": "(stereo not drawn)", "activity change, negative = inhibition": "inactive: -28%"},
      {"smiles": "OCc1cccc(Nc2ncnc3sccc23)c1", "activity change, negative = inhibition": "inactive: -20.6%"},
      {"smiles": "CN(Cc1nc(-c2ccccc2)no1)CC1(O)CNCCOC1", "note": "(stereo not drawn)", "activity change, negative = inhibition": "inactive: 0.799%"},
      {"smiles": "COc1ccc(-c2nnc(C[C@@H]3C[C@@H](C(C)C)[C@H](CNCc4ccco4)C=C3C)o2)cc1", "activity change, negative = inhibition": "inactive: 13.8%"},
      {"smiles": "CN(C)c1ncc2c(n1)C(C)(C(=O)NCCOc1ccccc1)CCC2", "note": "(stereo not drawn)", "Potency": "active: 31.6 µM"},
      {"smiles": "CC(=O)Nc1ccc(CN2CC(N(C)c3ccccc3C)C2)cc1", "activity change, negative = inhibition": "inactive: -6.6% [at 86.2 µM]"},
      {"smiles": "COc1cc(Br)c2cc(C(=O)O)[nH]c2c1OC", "Potency": "inconclusive: 25.1 µM [inhibitor, partial curve, poor fit]"},
      {"smiles": "O=C(CCn1c(=O)c2cccn2c2cccnc21)NCc1ccc(F)cc1", "Potency": "inconclusive: 17.8 µM [inhibitor, partial curve, poor fit]"},
      {"smiles": "CCOCCn1c(=O)[nH]c2cc(C(=O)NCCc3ncccc3C)ccc21", "Potency": "inconclusive: 12.6 µM [inhibitor, partial curve, poor fit]"},
      {"smiles": "CC(NC(=O)c1ccc(OC(F)(F)F)cc1)C(=O)N1CCN(c2ccccn2)CC1", "note": "(stereo not drawn)", "Potency": "inconclusive: 25.1 µM [inhibitor, partial curve, poor fit]"},
      {"smiles": "O=C(Cc1ccccc1)Nc1cccc2ncccc12", "Potency": "inconclusive: 39.8 µM [inhibitor, single point]"},
      {"smiles": "O=C(NC1CC1)c1cccc(NS(=O)(=O)c2ccc(C(F)(F)F)cc2)c1", "activity change, negative = inhibition": "inactive: -4.99%"},
      {"smiles": "COc1ccc(OC)c(S(=O)(=O)Nc2ccc(-c3ccc(N4CCOCC4)nn3)cc2)c1", "Potency": "inconclusive: 39.8 µM [inhibitor, single point]"},
      {"smiles": "CC(Sc1nc2ccccc2o1)C(=O)NCC1CCCCC1", "note": "(stereo not drawn)", "activity change, negative = inhibition": "inactive: 9.21%"},
      {"smiles": "COc1ccc(/C(O)=C2\\C(=O)C(=O)NC2c2ccc(C(C)(C)C)cc2)cc1F", "note": "(stereo not drawn)", "activity change, negative = inhibition": "inactive: -30%"},
      {"smiles": "CCCOc1ccc(/C=C(/C#N)c2nc3ccccc3[nH]2)cc1", "activity change, negative = inhibition": "inactive: -3.25%"},
      {"smiles": "Cc1ccc(Nc2nc(-c3ccc([N+](=O)[O-])cc3)cs2)cc1", "activity change, negative = inhibition": "inactive: 11.2%"},
      {"smiles": "Cc1n[nH]c(C)c1CCC(=O)N[C@@H]1CN(S(C)(=O)=O)C[C@H]1CN(C)C", "activity change, negative = inhibition": "inactive: -5.53%"},
      {"smiles": "COC(=O)c1cccc(S(=O)(=O)Nc2ccc(Cl)c3cccnc23)c1", "activity change, negative = inhibition": "inactive: 1.64%"},
      {"smiles": "O=C(Nc1cccc(Cl)c1)c1cnc(N2CCOCC2)c2ccccc12", "activity change, negative = inhibition": "inactive: 15%"},
      {"smiles": "COc1ccc(CCn2c(NN=C(C)C)nc3c2c(=O)[nH]c(=O)n3C)cc1", "Potency": "inconclusive: 25.1 µM [inhibitor, single point]"},
      {"smiles": "O=C(c1ccc2cc[nH]c2c1)N1CCN(Cc2cnc[nH]2)CC(O)C1", "note": "(stereo not drawn)", "Potency": "active: 25.1 µM"},
      {"smiles": "CCOc1cc(CNC(=O)c2ccc3c(c2)NC(=O)C2CCCCN32)cc(OCC)c1OCC", "note": "(stereo not drawn)", "Potency": "inconclusive: 35.5 µM [inhibitor, partial curve, poor fit]"},
      {"smiles": "Cc1ccc(Cl)cc1N1CCN(C(=O)c2ccc3c(c2)N(Cc2ccc(F)cc2)CCS3)CC1", "Potency": "inconclusive: 28.2 µM [inhibitor, partial curve, poor fit]"},
      {"smiles": "CC(NC(=S)NNC(=O)CSCc1ccccc1)c1ccccc1", "note": "(stereo not drawn)", "activity change, negative = inhibition": "inactive: 14.1%"},
      {"smiles": "CCN(CC)S(=O)(=O)c1ccc(OC(C)C)c(NC(=O)c2ccc(OC(F)F)c(OC)c2)c1", "Potency": "inconclusive: 39.8 µM [inhibitor, single point]"},
      {"smiles": "COc1ccccc1CC(=O)N1CC[C@@H](NC(=O)c2cnccn2)[C@H](O)C1", "Potency": "inconclusive: 12.6 µM [inhibitor, partial curve, poor fit]"},
      {"smiles": "CCOC(=O)C1CCN(C(=O)c2ccc(-n3ccc4ccccc43)s2)CC1", "Potency": "inconclusive: 28.2 µM [inhibitor, partial curve, poor fit]"},
      {"smiles": "Cc1cccc(Nc2nc(NCc3ccc(Cl)cc3)nc(N)c2[N+](=O)[O-])c1", "activity change, negative = inhibition": "inactive: 13.5%"},
      {"smiles": "CCC(=O)c1ccc(OC(=O)c2cc(Br)ccc2Cl)cc1", "activity change, negative = inhibition": "inactive: 20.8%"},
      {"smiles": "COc1ccc(Cn2ccn(Cc3cccc(OC)c3)c(=O)c2=O)cc1", "Potency": "inconclusive: 50.1 µM [inhibitor, single point]"},
      {"smiles": "CCn1c(SCC(=O)Nc2ccc3c(c2)OCCO3)nc2c(-c3ccccc3)csc2c1=O", "activity change, negative = inhibition": "inactive: 12.4%"},
      {"smiles": "O=C(C1CCCN(C2CCN(c3nc4ccccc4o3)CC2)C1)N1CCSCC1", "note": "(stereo not drawn)", "activity change, negative = inhibition": "inactive: -35.5%"},
      {"smiles": "COc1c(C)cccc1C(=O)Nc1cccc2ccc(C)nc12", "Potency": "inconclusive: 2.24 µM [inhibitor, partial curve, poor fit]"},
      {"smiles": "CCOC(=O)c1cccc(NC(=O)CCn2c(-c3ccc(F)cc3)cc(C(=O)OCC)c2C)c1", "Potency": "inconclusive: 28.2 µM [inhibitor, partial curve, poor fit]"},
      {"smiles": "O=S(=O)(NCCCn1ccc2ccccc21)c1ccc(F)cc1", "activity change, negative = inhibition": "inactive: 0.375%"},
      {"smiles": "CCCn1cnc2nc(CSc3ccccc3NC(=O)c3cccc(Cl)c3)cc(=O)n21", "activity change, negative = inhibition": "inactive: -9.49%"},
      {"smiles": "Cc1ccc([S+](=O)([O-])c2nnn3c2nc(N2CCC(F)CC2)c2ccccc23)cc1", "Potency": "inconclusive: 63.1 µM [inhibitor, partial curve, poor fit]"},
      {"smiles": "CC1=C[C@@H](CNCc2ccncc2)[C@H](C(C)C)C[C@H]1Cc1nnc(-c2ccccc2F)o1", "activity change, negative = inhibition": "inactive: -6.3% [at 86.2 µM]"},
      {"smiles": "O=C(CSC1CCCCC1)c1ccccc1Br", "Potency": "inconclusive: 22.4 µM [inhibitor, partial curve, poor fit]"},
      {"smiles": "Cn1c(=O)c2ccnn2c2ccc(C(=O)NCC3CCN(Cc4ccccc4F)CC3)cc21", "Potency": "active: 31.6 µM"},
      {"smiles": "COc1cc2nc(NC(=O)c3ccc(S(=O)(=O)N4CCOCC4)cc3)sc2cc1OC", "Potency": "inconclusive: 0.891 µM [inhibitor, partial curve, poor fit]"},
      {"smiles": "COc1ccc(-c2cc(C(F)(F)F)nc(S(=O)(=O)CCC(=O)Nc3ccc(Cl)cc3)n2)cc1", "Potency": "inconclusive: 25.1 µM [inhibitor, partial curve, poor fit]"},
      {"smiles": "COc1ccc(C2CC(C)=NN2c2nc(-c3ccc(F)cc3)cs2)cc1OC", "note": "(stereo not drawn)", "Potency": "inconclusive: 22.4 µM [inhibitor, partial curve, poor fit]"},
      {"smiles": "CNC(=O)c1cnn2ncccc12", "Potency": "active: 31.6 µM"},
      {"smiles": "COc1ccccc1CNC(=O)[C@@H]1Cc2cn(C)c3cccc(c23)[C@H](CC(C)C)N1", "Potency": "active: 35.5 µM"}
    ]}
  ]
}
